Data: article PMC4336329 (PLoS ONE, 2015)
Hit rate of the full screen: of about 310,000 compounds, about 2,200 (0.71%) showed an effect of 50% or more. Effects have a minus sign here. The list shows a part of the results.

target: human ether-à-go-go-related gene (hERG) potassium channel (human, UniProt Q12809); test: primary screen, population patch clamp on CHO cells stably expressing hERG
Sequence (Q12809 whole entry, looked up): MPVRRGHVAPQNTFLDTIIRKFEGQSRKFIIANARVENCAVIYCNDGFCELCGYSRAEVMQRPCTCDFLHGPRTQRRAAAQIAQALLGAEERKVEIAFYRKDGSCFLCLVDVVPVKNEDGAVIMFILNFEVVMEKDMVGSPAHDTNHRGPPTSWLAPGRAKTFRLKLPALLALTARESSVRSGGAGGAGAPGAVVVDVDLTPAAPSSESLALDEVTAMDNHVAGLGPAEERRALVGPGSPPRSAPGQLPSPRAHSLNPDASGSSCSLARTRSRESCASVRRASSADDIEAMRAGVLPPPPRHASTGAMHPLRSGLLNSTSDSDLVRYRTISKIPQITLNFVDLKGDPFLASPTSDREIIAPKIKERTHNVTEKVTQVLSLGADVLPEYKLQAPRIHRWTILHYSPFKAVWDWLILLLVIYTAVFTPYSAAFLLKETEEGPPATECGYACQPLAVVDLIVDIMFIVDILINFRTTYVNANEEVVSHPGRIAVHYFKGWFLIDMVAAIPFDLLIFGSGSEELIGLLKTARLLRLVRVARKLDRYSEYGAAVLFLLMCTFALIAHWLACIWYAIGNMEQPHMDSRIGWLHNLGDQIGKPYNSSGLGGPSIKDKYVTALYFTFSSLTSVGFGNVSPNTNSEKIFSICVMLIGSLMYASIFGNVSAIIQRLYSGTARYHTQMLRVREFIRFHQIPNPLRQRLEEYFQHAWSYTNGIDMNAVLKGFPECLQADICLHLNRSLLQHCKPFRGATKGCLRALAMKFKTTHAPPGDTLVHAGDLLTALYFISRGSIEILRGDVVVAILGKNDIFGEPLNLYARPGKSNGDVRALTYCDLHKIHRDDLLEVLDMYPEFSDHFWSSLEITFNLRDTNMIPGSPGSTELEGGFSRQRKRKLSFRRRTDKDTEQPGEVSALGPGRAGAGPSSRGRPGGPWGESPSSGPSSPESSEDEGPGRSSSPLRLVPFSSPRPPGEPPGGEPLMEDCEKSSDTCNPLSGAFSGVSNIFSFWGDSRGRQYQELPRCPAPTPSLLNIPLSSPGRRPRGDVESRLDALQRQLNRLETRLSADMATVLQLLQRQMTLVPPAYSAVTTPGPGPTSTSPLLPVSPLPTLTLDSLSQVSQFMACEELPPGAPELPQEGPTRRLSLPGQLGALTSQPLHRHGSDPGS

**Q.** For `COc1cccc(NC(=O)c2c(C)nn(-c3ccccc3)c2Cl)c1`, which “hERG current change (%, negative = inhibition) at 1uM” value is on record?
**A.** Its value is 14.9%.

**Q.** `CSc1ncccc1C(=O)Nc1cc(C)ccn1` was tested. Which “hERG current change (%, negative = inhibition) at 1uM” value did it give?
**A.** Its value is 13.9%.

**Q.** Which “hERG current change (%, negative = inhibition) at 1uM” value does the source give for `CCC1CCCCN1CCNC(=O)CCS(=O)(=O)c1ccc(Br)cc1` (stereo not shown) here?
**A.** Its value is -4.9%.

**Q.** How did the “hERG current change (%, negative = inhibition) at 1uM” value turn out when `CC(CCc1ccccc1)NC(=O)[C@@H]1Cc2ccccc2CN1.Cl` (stereo partly shown) was run?
**A.** The value was 6.57%.

**Q.** For `COc1ccc(/C=N/NC(=O)c2cc[n+]([O-])cc2)cc1OC`, which “hERG current change (%, negative = inhibition) at 1uM” value is on record?
**A.** Its value is 22.9%.

**Q.** How did the “hERG current change (%, negative = inhibition) at 1uM” value turn out when `O=C(N/N=C/c1ccc(Cl)cc1)c1sccc1OCc1ccc(F)cc1` was run?
**A.** Its value is 20.5%.

**Q.** `COCCCNC(=O)CN1C(=O)/C(=C/c2ccccc2C)Sc2ccccc21` was tested. Which “hERG current change (%, negative = inhibition) at 1uM” value did it give?
**A.** Its value is 7.95%.

**Q.** How did the “hERG current change (%, negative = inhibition) at 1uM” value turn out when `COc1ccc(OC)c(NC2=C(Cl)C(=O)N(Cc3ccccc3)C2=O)c1` was run?
**A.** The value was 6.27%.

**Q.** For `CCc1nnc(NC(=O)CCC(=O)N2CCN(C3CCCCC3)CC2)s1`, which “hERG current change (%, negative = inhibition) at 1uM” value is on record?
**A.** The value was 5.37%.

**Q.** `CC1CCN(C(=O)CNC(=O)Cc2ccccc2)CC1` was tested. Which “hERG current change (%, negative = inhibition) at 1uM” value did it give?
**A.** The value was 1.45%.

**Q.** How did the “hERG current change (%, negative = inhibition) at 1uM” value turn out when `O=C(C1CCCN(S(=O)(=O)c2cccc3nsnc23)C1)N1CCCCCC1` (stereo not shown) was run?
**A.** Its value is 3.37%.

**Q.** Which “hERG current change (%, negative = inhibition) at 1uM” value does the source give for `Cc1c(C#N)c(=O)c(-[n+]2ccccc2)c([S-])n1-c1ccc(Cl)cc1` here?
**A.** The value was 7.31%.

**Q.** How did the “hERG current change (%, negative = inhibition) at 1uM” value turn out when `CCC(=O)N1CCc2cc(S(=O)(=O)NCCC(=O)NCc3ccc(F)cc3)ccc21` was run?
**A.** The value was 3.39%.

**Q.** `O=C(COc1ccc(-c2ccccc2)cc1)NN=C1CCCC1` was tested. Which “hERG current change (%, negative = inhibition) at 1uM” value did it give?
**A.** Its value is 5.37%.

**Q.** How did the “hERG current change (%, negative = inhibition) at 1uM” value turn out when `COc1ccc(NC(C)=O)c(C)c1` was run?
**A.** The value was 14%.

**Q.** Which “hERG current change (%, negative = inhibition) at 1uM” value does the source give for `CC(C)Cn1c(N)c(C(=O)COC(=O)C2CCCCC2)c(=O)n(C)c1=O` here?
**A.** Its value is -4.5%.

**Q.** `Cc1csc(C(=O)O)c1NC(=O)c1cccc([N+](=O)[O-])c1` was tested. Which “hERG current change (%, negative = inhibition) at 1uM” value did it give?
**A.** The value was 7.95%.

**Q.** Which “hERG current change (%, negative = inhibition) at 1uM” value does the source give for `Cc1nc2cc(NC(=O)NCc3ccco3)ccc2n1C` here?
**A.** The value was 11.9%.

**Q.** For `COc1ccc(CN(CC(=O)NCCC(C)C)C(=O)CCC(=O)Nc2nccs2)cc1`, which “hERG current change (%, negative = inhibition) at 1uM” value is on record?
**A.** The value was 8.41%.

**Q.** `COc1ccc(C(=O)N2CCC(C(=O)NCc3ccccn3)CC2)cc1` was tested. Which “hERG current change (%, negative = inhibition) at 1uM” value did it give?
**A.** Its value is -5.12%.

**Q.** `NC(=O)CC(NC(=O)Cc1ccc(Cl)cc1)c1ccc(NC2CCCCCC2)c([N+](=O)[O-])c1` (stereo not shown) was tested. Which “hERG current change (%, negative = inhibition) at 1uM” value did it give?
**A.** Its value is 11.2%.

**Q.** Which “hERG current change (%, negative = inhibition) at 1uM” value does the source give for `O=C(O)C1CCCN1C(=O)C12CC3CC(CC(C3)C1)C2` (stereo not shown) here?
**A.** The value was 11.9%.

**Q.** For `Cl.FC(F)(F)Oc1ccc(Nc2nc(N3CCOCC3)nc(N3CCOCC3)n2)cc1`, which “hERG current change (%, negative = inhibition) at 1uM” value is on record?
**A.** Its value is -3.04%.

**Q.** With `O=C(Oc1ccc(Oc2ccccc2)cc1)N1CCC(O)CC1` as the compound, how does the “hERG current change (%, negative = inhibition) at 1uM” value read?
**A.** Its value is 17.1%.

**Q.** `O=C(Nc1cccc2c1CCCC2)C1CCCN(S(=O)(=O)c2cccc3nonc23)C1` (stereo not shown) was tested. Which “hERG current change (%, negative = inhibition) at 1uM” value did it give?
**A.** Its value is 4.31%.
